Test results: PubChem BioAssay AID493208 (National Center for Advancing Translational Sciences (NCATS), 2011)
The campaign covered roughly 44,000 compounds. About 340 (0.77%) were called active. Inconclusive results (about 5%) are left out. The call rests on the fitted dose curve; in most records, active means well fitted inhibition curve with a large enough effect; inconclusive means small, poorly fitted or top-dose-only effect; inactive means flat fitted curve, though single readings scatter. Some of the results follow.

Assay: Acumen qHTS Assay for Inhibitors of the mTORC1 Signaling Pathway in MEF (Tsc2-/-, p53-/-) Cells: Sytravon;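 further: plate controls were DMSO for no effect and rapamycin for full effect; nearly all actives have a fitted effect of over 50% in size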
Settings: phospho-rpS6 immunofluorescence/PI, 24 h; series mostly up to 38.3 µM; activity change, negative = inhibition: at the top concentration
Summary of the method: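 Tsc2-/-, p53-/- MEFs (empty-vector stable line) in DMEM + 10% FBS were treated with compounds 24 h at 37 degree Celsius, fixed, and immunostained for phospho-rpS6 (Alexa-488) with propidium iodide counterstain. Laser-scanning cytometry gave % positive cells, normalized against 7.5 nM rapamycin and DMSO.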

Compound	activity change, negative = inhibition
Cc1cccc(S(=O)(=O)c2cn(Cc3ccccc3)c3cc(N4CCCC(C)C4)c(F)cc3c2=O)c1 (configuration not stated)	inactive: -0.24%
Clc1ccc(CSc2nc(NCCc3ccccc3)c3ccccc3n2)cc1	inactive: -0.803%
Cc1cc(NC(=O)C2CCCN(S(=O)(=O)c3cccc4nonc34)C2)ccc1Br (configuration not stated)	inactive: 3.53%
COc1ccc(OC)c(CNCc2c(C(=O)O)n(Cc3ccccc3)c3cc(OC)ccc23)c1	inactive: -1.61%
CCC(=O)N1CCc2cc(S(=O)(=O)NC(CC(C)C)C(=O)Nc3ccc(CC)cc3)ccc21 (configuration not stated)	inactive: -11.4%
O=C(CN1N=C(c2ccc(Cl)cc2)CCC1=O)NCc1ccc(F)cc1	inactive: 9.58%
O=C1Nc2ccccc2Oc2cc(Oc3ccc(Cl)cc3)ccc21	inactive: -6.46%
Cc1ccc(-c2cc(C(F)(F)F)n3nc(C(=O)Nc4ccc(C#N)cc4)cc3n2)cc1	inactive: 11.4%
CCOc1ccccc1CNC(=O)CCCN1C(=O)CCn2nc(-c3cccn3C)cc21	inactive: 1.39%
Cc1ccc(CNC(=O)C2CCN(S(=O)(=O)c3ccc4c(c3)oc(=O)n4C)CC2)cc1	inactive: 2.92%
CCc1ccc(-n2nc(C)c3c(C)cc(=O)n(CC(=O)Nc4ccc(OC)c(OC)c4)c32)cc1	inactive: -1.87%
CCOC(=O)c1c(C)[nH]c(C)c1S(=O)(=O)N1CCCC(C(=O)N2CCN(c3cc(C)ccc3C)CC2)C1 (configuration not stated)	inactive: -7.26%
CCOc1ccc(CNC(=O)Cn2ncc3c(=O)oc4ccc(C)cc4c32)cc1	inactive: 1.8%
Cc1ccc(C)c(CN2C(=O)c3ccccc3S(=O)(=O)c3ccc(C(=O)N4CCOCC4)cc32)c1	inactive: -7.96%
CCC(CC)C(=O)Nc1ccccc1C(=O)OCc1cc(=O)n2nc(C3CCCCC3)sc2n1	inactive: 0%
COc1ccc(Cl)cc1N(C)C(=O)Cn1cnc2sc(C)c(S(=O)(=O)N3CCN(c4ncccn4)CC3)c2c1=O	inactive: 2.96%
COc1ccc(C(=O)N2CCCCC2CCN2CCCCC2)cc1 (configuration not stated)	inactive: -2.78%
COc1ccc(Cl)cc1NC(=O)[C@H]1O[C@@H]2OC(C)(C)O[C@@H]2[C@H]2OC(C)(C)O[C@H]21	inactive: -3.6%
O=S(=O)(c1cccs1)N1CCN(c2ccc(Cl)cc2)CC1	inactive: 11.9%
COc1ccc(NC(=O)Cn2cc(C(=O)C3CC3)c3ccccc32)cc1	inactive: -10.2%
CCN1CCN(C(=O)c2ccc3c(c2)N(Cc2cc(C)ccc2C)C(=O)c2ccccc2S3=O)CC1 (configuration not stated)	inactive: -6.05%
COC(=O)c1cc(NC(=O)CN(c2ccccc2)S(=O)(=O)N(C)C)ccc1Cl	inactive: -20%
NS(=O)(=O)c1ccc(CCNc2nc3c(-c4cccc(F)c4)nnn3c3ccc(Cl)cc23)cc1	inactive: -6.52%

Compound	activity change, negative = inhibition
CCOc1ccccc1NC(=O)Cn1nnc2sc3c(c2c1=O)CCC(C(C)(C)C)C3 (configuration not stated)	inactive: -3.31%
Cc1ccc(CSc2nc3ccc(NC(=O)COc4ccccc4F)cc3s2)cc1	inactive: 0.714%
CCCCN(CCCC)S(=O)(=O)c1ccc2oc(C(=O)NCc3ccccc3)c(C)c2c1	inactive: 0.907%
Cc1cc(C)c(/C=C/c2onc(C)c2S(=O)(=O)N2CCC(C(=O)NCc3ccco3)CC2)c(C)c1	inactive: -2.1%
CCOC(=O)c1c(C)[nH]c(C)c1S(=O)(=O)N(C)CC(=O)N1CCN(c2ccccc2OC)CC1	inactive: 0%
CCOC(=O)N1CCN(C(=O)CN(c2ccc(C)cc2C)S(=O)(=O)c2ccccc2)CC1	inactive: 5.59%
O=C(CN1C(=O)C2(SCC(=O)N2c2cccc(Cl)c2)c2ccccc21)NC1CCCCC1 (configuration not stated)	inactive: 6.63%
O=C(CNS(=O)(=O)c1ccc(Br)s1)N1CCN(c2ccccc2F)CC1	inactive: -21.2%
Cc1nn(CC(=O)N2CCN(c3ccccc3)CC2)c(=O)c2cccn12	inactive: 2.21%
CCc1nn(CC(=O)NCc2cccc(OC)c2)c(=O)c2cc3cc(F)ccc3n12	inactive: -1.63%
Cc1ccc(-c2nc3c(cnn3-c3ccccc3)c(=O)n2-c2ccc(Cl)cc2)cc1	inactive: 1.56%
O=C(COCc1cc(-c2ccco2)on1)Nc1ccc(OC(F)(F)F)cc1	inactive: -8.37%
COc1cccc(OC)c1C(=O)Nc1ccc2c(c1)CCCN2S(=O)(=O)c1ccc(C)cc1	inactive: -25.2%
Cc1oc(-c2ccc(Cl)cc2)nc1Cn1c(=O)cc(-c2ccccc2)c2c(C)nn(C)c21	inactive: 3.12%
Cc1ccc(-n2ncc3c(NCCC4=CCCCC4)ncnc32)cc1C	inactive: -24.5%
COc1ccc(-c2onc(C)c2C)cc1S(=O)(=O)N1CCC(C)CC1	inactive: -5.33%
CCc1ccc(NC(=O)c2ccc(CN3C(=O)C(C)=C(c4ccc(C)cc4)S3(=O)=O)cc2)cc1	inactive: 0.412%
COc1cccc(-c2nc(C(N)=O)c3c(n2)n(-c2ccc4c(c2)OCO4)c(=O)n3C)c1OC	inactive: -13.9%
Cn1c(C(=O)NCc2cccc(F)c2)cc2cc(S(=O)(=O)N3CCCCC3)ccc21	inactive: 7.3%
COc1ccccc1CCNC(=O)c1cccn1-c1nnc(N2CCCCC2)s1	inactive: -8.79%
O=C(Cn1cc(S(=O)(=O)Cc2ccc(F)cc2)c2ccccc21)NCc1ccccc1	inactive: 4.33%
CCOc1ccccc1NC(=O)CSc1cc(=O)n(CC)c2ccccc12	inactive: -7.97%
CCOc1ccc(-c2cc(C(F)(F)F)c(C#N)c(SCC(=O)Nc3ccccc3)n2)cc1	inactive: -0.86%

Compound	activity change, negative = inhibition
CC(=O)c1cc(-c2ccccc2)n(CCC(=O)Nc2cc(C)cc(C)c2)c1C	inactive: 0.306%
Cc1cccc(NC(=O)CSc2nc(C)c(Cc3ccccc3)c(=O)[nH]2)c1	inactive: 6.96%
CCCNC(=O)CN1C(=O)c2cccnc2Sc2ccccc21	inactive: -1.43%
COc1ccccc1N1CCN(C(=O)c2c3c(nc4ccccc24)C(=O)N(C2CCCCC2)C3)CC1	inactive: -12.4%
Cc1ccc(C)c(N2CCN(C(=O)c3c4c(nc5ccccc35)C(=O)N(C3CCCCC3)C4)CC2)c1	inactive: -0.453%
COc1ccc(-c2nc(CNS(=O)(=O)c3ccc(F)cc3)cs2)cc1	inactive: -5.72%
O=C(CSc1nc2c(c(=O)[nH]1)CN(Cc1ccc3c(c1)OCO3)CC2)Nc1ccc(F)cc1	inactive: 5.9%
CCC(C)NC(=O)c1sc2nc(C)c(C(=O)Nc3ccc(Cl)cc3)c(-c3ccc(Br)cc3)c2c1N (configuration not stated)	inactive: 0%
CCCOc1cccc(C(=O)Nc2ccc(-c3nc4ccccc4o3)cc2)c1	inactive: 3.83%
COc1cc(OC)cc(-n2c(=O)c3ccccc3n(CC(=O)NCCc3ccc(OC)c(OC)c3)c2=O)c1	inactive: -11.8%
COc1ccc2cc(CNc3ccc(OC)c(OC)c3)c(=O)n(CC(=O)Nc3ccc(C)cc3)c2c1	inactive: -9.39%
O=C(NCCc1ccccc1)c1c[nH]c2ccc(S(=O)(=O)Nc3ccccc3F)cc2c1=O	inactive: -8.52%
COc1ccc(NC(=O)Nc2nnc(N(C)C3CCCCC3)s2)c(OC)c1	inactive: -2.84%
CCOC(=O)c1sc(NC(=O)COc2ccccc2Cl)c(C(=O)OCC)c1C	inactive: 4.41%
O=C(Nc1ccc(O)c(-c2nc3ccccc3o2)c1)c1ccco1	inactive: -1.31%
Cc1ccccc1NC(=O)CSc1nc2c(oc3ccccc32)c(=O)n1-c1ccccc1F	inactive: -7.8%
CC1CCN(C(=O)c2cc(-c3ccc(Cl)cc3)on2)CC1	inactive: -3.51%
CC1=C(C(=O)OCC2CCCCC2)C(c2c(F)cccc2Cl)CC(=O)N1 (configuration not stated)	inactive: -18.9%
COc1ccc(CCNC(=O)CCc2c(C)nc3nc(C)nn3c2C)cc1OC	inactive: 1.69%
CCc1ccc(S(=O)(=O)c2nnn3c2nc(NC2CCCC2)c2sccc23)cc1	inactive: -4.16%
COc1ccc(C)cc1NC(=O)CCS(=O)(=O)c1ccc2c(c1)CC(=O)N2C	inactive: 11.1%
COc1cc(OC)c(NC(=O)Nc2ccccc2OCc2cc(=O)n3cc(C)ccc3n2)cc1Cl	inactive: 8.52%
COCCNC(=O)c1cc(Sc2ccc(F)cc2F)nc2ccccc12	inactive: 1.36%

Compound	activity change, negative = inhibition
O=C(CSc1ccc2ccccc2n1)Nc1nsc(-c2ccc(Cl)cc2)n1	inactive: -2.38%
COc1ccc(-n2ccn(Cc3ccc(C)cc3)c(=O)c2=O)cc1OC	inactive: -0.818%
O=C(c1ccc2c(c1)N(Cc1ccc(F)cc1)C(=O)c1ccccc1S2(=O)=O)N1CCC(Cc2ccccc2)CC1	inactive: -10.8%
COc1ccc(NC(=O)CN(C)S(=O)(=O)c2ccc3[nH]c4c(c3c2)CCCC4)cc1Cl	inactive: -4.55%
CC(=O)N1c2nc(-c3ccco3)nn2C2(CCCCC2)[C@@H]2CCCC[C@@H]21	inactive: -12.4%
Cc1cccc(-n2c(=O)c3c(c4cc(C)ccc4n3C)n(Cc3ccccc3F)c2=O)c1	inactive: 1.64%
COc1ccc(Cn2c(SCc3ccc(C(=O)NCc4ccccc4F)cc3)nc3cccnc32)cc1	inactive: -3.32%
Cc1ccc(Cl)cc1N1C(=O)N(Cc2ccc(C#N)cc2)c2ccccc2S1(=O)=O	inactive: -3.93%
COc1ccc(C2=Nc3ccc(C)cc3NC(c3ccc(Cl)cc3)=N2)cc1	inactive: -0.393%
COc1ccc(Cl)cc1NC(=O)CCCn1c(C)c2cnn(-c3ccccc3)c(=O)c2c1C	inactive: -0.352%
COc1ccc(CNC(=O)c2cccc(NC(=O)N3CCSc4ncccc43)c2)cc1	inactive: -0.299%
COc1cccc(Cn2c(=O)n(-c3ccc(Br)cc3F)c(=O)c3sc4ccccc4c32)c1	inactive: -0.36%
Cc1ccc(NC(=O)CC2Nc3cccc4cccc(c34)NC2=O)cc1 (configuration not stated)	inactive: -28%
CCCCNC(=O)CSc1nc2ccccc2nc1Cc1ccc(Cl)cc1	inactive: 0%
COc1ccc(NC(=O)CCNS(=O)(=O)c2cccc3nsnc23)cc1OC	inactive: -19.2%
COc1ccc(N(Cc2ccccc2)C(=O)c2nc(SC)ncc2Cl)cc1	inactive: -15.1%
CCCOc1cccc(C(=O)N(Cc2cc(OC)c(OC)c(OC)c2)C2CCS(=O)(=O)C2)c1 (configuration not stated)	inactive: -13.2%
Cc1ccc(OCCn2nnc3sc4c(c3c2=O)CCC(C(C)(C)C)C4)cc1 (configuration not stated)	inactive: -0.83%
CCn1c(CN2CCC(C)CC2)nc2cc(NC(=O)COc3ccc([N+](=O)[O-])cc3)ccc21	inactive: -1.04%
CC(C)c1ccc(NC(=O)c2cccn2-c2nnc(N3CCCCC3)s2)cc1	inactive: -10.6%
CCOC(=O)c1cccc(NC(=O)CCCn2c(C)c3cnn(-c4ccccc4)c(=O)c3c2C)c1	inactive: -1.28%
COc1cc(C2CC(=O)Nc3c2c(=O)n(C)c(=O)n3C)cc(OC)c1OC (configuration not stated)	inactive: 0.735%
Cc1cccc(-n2ncc(C(=O)N3CCC(C)CC3)c2C2CCN(C(=O)OC(C)(C)C)CC2)c1	inactive: -0.0544%
